B1: chr17:47010600:47010601:-_ENSG00000159210_ENST00000290330|hu_mus|FALSE|FALSE (ssRNA)
RNA: GGGAGUUCUACAGUCCGACGAUCGACAGUCACAUACCCGUUUUUCUCGGCCAGCUGCAGCACAACAGUGUGAUCCAUAUUGAGCUCAGCGGGAACAGACUGGAUGAGGUAAGUGCCUCCCACAGGGAUGAUGCCGAAUCCAGUCAACAGAGGAUUGAGCAUCA
B2: chr12:39756943:39756944:-_ENSG00000139116_ENST00000544797|hu_mus|hu_hu_hu_mus_False|1_58 (ssRNA)
RNA: GGGAGUUCUACAGUCCGACGAUCGGUUUGGCUGUUACCCCCAAGGGAAUCCUGCAAGAGUCUUGUCAGCUUAGAGUCUCUAUAGGGGACAUGGGUGGCUCUCUUGCUCUUGUCCCCCAAGGCGCUGAUUACAUUCCCAAGUGCCAACAGAGGAUUGAGCAUCA
B3: chr17:27613171:27613172:-_ENSG00000108256_ENST00000225388|hu_mus|motif|central (ssRNA)
RNA: GGGAGUUCUACAGUCCGACGAUCCGUAGGAGAGGCCAGGGGAUUUUGAUUUUCUAUUUCGUAGUCCUUUGAGAGAAACACGGAAGCACCUUGACUACUGGUGUCUGCUUUUUGCAGGUCACCUAUAUGACUGGGGUCCAAGGACAACAGAGGAUUGAGCAUCA
B4: 61770245_61778930_940_3pUTR_ENSG00000086200_ENST00000325324|human|control|control (ssRNA)
RNA: GGGAGUUCUACAGUCCGACGAUCAAGCACUUUAGUAAAAAGAAUGAUGGUCUUUUCCAGUCUAUCUCUACACACAUUAUCUGUACCUAUACUUCUACUGCAUUCCAGAAACUGUUUUAGACGUUCAAAUAUUCCAUGUAAAAACAACAGAGGAUUGAGCAUCA
B5: 130162959_130166533_1262_CDS_ENSMUSG00000026353_ENSMUST00000027592|mouse|control|control (ssRNA)
RNA: GGGAGUUCUACAGUCCGACGAUCCCUCGCUUCUUCUAGAGGAGCAUCAGAAGGAAACUGGUUUGUAAAGGAAGAACCAUCAGGCAGCCGGAACUGAAUUCUUGCAAUGGUGCUUCUGUCUCGUGCUGUAGACUCUCUCUUGACCAACAGAGGAUUGAGCAUCA
B6: chr5:32601156:32601157:+_ENSG00000113387_ENST00000502897|hu_hu|FALSE|FALSE (ssRNA)
RNA: GGGAGUUCUACAGUCCGACGAUCGGUUUUAUUUAUAUGGCUCGAAUUUUACAGUUUUCUUACUGCAUCAUCAAUGUCAGAAAUCUGUUCCUUCAGCUGGCUCCAUUGUUCUGGAUUUAAAGAAAUACCUUUUCUUCCUGGUUUCAACAGAGGAUUGAGCAUCA
B7: chr11:55313332:55313333:+_ENSMUSG00000018583_ENSMUST00000018727|mus_mus|FALSE|FALSE (ssRNA)
RNA: GGGAGUUCUACAGUCCGACGAUCCUCUUUACAAUCUAUUCCUCCUAAAGUAUCAUUCCGGAAAACUGGGAAUGAAGGACUAAGGGGUCAGGGGAGGAAAGGGGGUUGGGAGCACACACCAUGAACACAAGCGAAAUGAAAAUUCAACAGAGGAUUGAGCAUCA
B8: 169910951_169911071_1172_3pUTR_ENSG00000145439_ENST00000306193|human|control|control (ssRNA)
RNA: GGGAGUUCUACAGUCCGACGAUCACAUCCUUUAGAAAACACAAUUUGUCUGGGGGGAUGAUUGCACAUGUAUUUAAAUAUGUUAAAACCACUGAAUUGUGUAUUUUAAAUGUGUGAUUAUAUGGUAUGUGAAUUGUAUCUCAUCAACAGAGGAUUGAGCAUCA
B9: chr6:86333760:86333761:-_ENSG00000135316_ENST00000355238|hu_mus|hu_hu_hu_mus_True|28_98 (ssRNA)
RNA: GGGAGUUCUACAGUCCGACGAUCUUCCUCAAGAAUCUGUUCCUUGGUUUUACUCUUAGGAAUCGAGCCCACAAAAAGCCUAUUGUUGGCAACUGAGAUGCAGACACCAAUAUGUUUCCCGGAACGAAUUUCAUGAUUAUUAUACAACAGAGGAUUGAGCAUCA
B10: chr8:82586177:82586178:-_ENSG00000133731_ENST00000256108|hu_hu|motif|central (ssRNA)
RNA: GGGAGUUCUACAGUCCGACGAUCUCCUUUUCUGGCAGUGUACAUCUUGCCUUCCACACAACUGUACACAACUCCAAAUUCGGUCUUUUUAUUUACAGCAAAGCCAAUUGAAACAGCUACAAAAGGAAAUCUAUGUACAAAGUUCAACAGAGGAUUGAGCAUCA
B11: chr3:8561242:8561243:+_ENSMUSG00000027500_ENSMUST00000029002|mus_hu|motif|central (ssRNA)
RNA: GGGAGUUCUACAGUCCGACGAUCAACAACCAGCUCACAGUUUCCAAGUGGAAAAAUAUUCAGUAGCAUCAUGUACUUGUACGGUAGGUAAGAGCUUAAAAUGAACAUCAUCAAUCAUGGCAUCCACAAAUAAGCCACCUGACACAACAGAGGAUUGAGCAUCA
B12: chr2:32445735:32445736:+_ENSG00000152683_ENST00000406369|hu_hu|motif|central (ssRNA)
RNA: GGGAGUUCUACAGUCCGACGAUCUCAAUAUUCCUUAUAAAAAUAAGUUAGAGUCUAUCAUGGUCUUGGUUGUCCAAUUCGGUUAUUAGUUCCAUAUCUACUUGGUAUAUUUGUAAAACCAGUCCUCAAUCCUUGAGUUGCUCCCAACAGAGGAUUGAGCAUCA
B13: chr5:71493949:71493950:+_ENSG00000131711_ENST00000296755|hu_hu|FALSE|FALSE (ssRNA)
RNA: GGGAGUUCUACAGUCCGACGAUCUGGAGACAUUUCUGUUUCCUGGAAUGUGGUAGGUGUUUGCACAACAGACACUGAAAGGGAGUCAUCUACUUCUGUGGAAUGUGGGGAGCCAACCUCAGCAUGCAGAGAUGGAGACACAUCCAACAGAGGAUUGAGCAUCA
B14: chr22:19452774:19452775:-_ENSG00000070010_ENST00000399523|hu_hu|hu_hu_hu_mus_False|8_108 (ssRNA)
RNA: GGGAGUUCUACAGUCCGACGAUCCUUUUCAUUAUAGUUGAUAGCAAUCACAUCUCCAGUCGUCAGACAGGCGAAGUUUCUCAAUGCAUUUUCUAAUACCGCUUUAGGGUUGGUAAUAUCCAGGAAGUCAGGGCUCUGAGGCUGCAACAGAGGAUUGAGCAUCA

This is one part of the list.

The target of the experiment is T1, UNK ZnF1-3 (human, UniProt Q9C0B0 31-174).
T1 sequence: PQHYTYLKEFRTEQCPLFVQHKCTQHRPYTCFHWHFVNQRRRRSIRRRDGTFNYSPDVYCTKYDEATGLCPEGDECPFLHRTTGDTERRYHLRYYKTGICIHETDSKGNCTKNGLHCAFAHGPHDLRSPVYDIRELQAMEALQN
The experiment is described as follows: nsRBNS (natural sequence RNA bind-n-seq); RBNS binding buffer (assumed for nsRBNS): 25 mM Tris pH 7.5, 150 mM KCl, 3 mM MgCl2, 0.01% Triton X-100, 500 ug/ml BSA, 20 U/ml SUPERase-In, 4 C; UNK is unkempt and MSI1 is Musashi-1; names of the RNAs are library labels; protein concentration not given here; high values mean tight binding.
Consider B1, for which the binding signal is 1.32 enrichment R.
As for B2, the figure is 0.75 enrichment R; as for B3, 1.05 enrichment R.
The result for B4 reads 0.737 enrichment R; that for B5, 1.6 enrichment R; that for B6, 0.458 enrichment R.
In turn, B7 gave a binding signal of 1.25 enrichment R.
Molecule B8 came in with a binding signal of 1.2 enrichment R.
As for B9, the figure is 1.22 enrichment R; as for B10, 0.993 enrichment R; as for B11, 1.76 enrichment R.
In turn, B12 showed a binding signal of 1.18 enrichment R.
As for B13, the figure is 1.32 enrichment R; as for B14, 0.891 enrichment R.

Source of the values: publication PMC12136788.
